Results as given in PubChem BioAssay AID1745853 (National Center for Advancing Translational Sciences (NCATS), 2022).
Where “and” joins values, the source holds several entries; their conditions need not be identical. Equal values may be shown once. This is one part of the list. Further columns of the screen follow, without active or inactive calls.

What was measured:
Assay in all cases: Primary Screen for Target Class Profiling of Small Molecule Inhibitors of Methyltransferases
[1] = target: Glycine N-methyltransferase (Homo sapiens) (UniProt Q14749); conditions: purified enzyme, MTase-Glo SAH luminescence; measured here: GNMT inhibition; at 40 µM; stronger effect = lower value
Method in brief: (§1)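 Each enzyme was reacted with SAM and its substrate, with compounds tested once at 40 uM; SAH formed was read by MTase-Glo luminescence.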

[2] = target: Guanidinoacetate N-methyltransferase (Homo sapiens) (UniProt Q14353); conditions: purified enzyme, MTase-Glo SAH luminescence; measured here: GAMT inhibition; at 40 µM; stronger effect = lower value
Method in brief: as §1

[3] = target: Histamine N-methyltransferase (Homo sapiens) (UniProt P50135); conditions: purified enzyme, MTase-Glo SAH luminescence; measured here: HNMT inhibition; at 40 µM; stronger effect = lower value
Method in brief: as §1

[4] = target: Nicotinamide N-methyltransferase (Homo sapiens) (UniProt P40261); conditions: purified enzyme, MTase-Glo SAH luminescence; measured here: NNMT inhibition; at 40 µM; stronger effect = lower value
Method in brief: as §1

[5] = target: Phenylethanolamine N-methyltransferase (Homo sapiens) (UniProt P11086); conditions: purified enzyme, MTase-Glo SAH luminescence; measured here: PNMT inhibition; at 40 µM; stronger effect = lower value
Method in brief: as §1
% is scaled to controls: 0 for no effect and ±100 for the full control effect.

SMILES	activity change, negative = inhibition [1]	activity change, negative = inhibition [2]	activity change, negative = inhibition [3]	activity change, negative = inhibition [4]	activity change, negative = inhibition [5]
CC1(C(=O)NC2CCCC2)Cn2c(cc3sccc32)C(=O)N1Cc1cccc(F)c1 (centres undefined)	-3.02%	2.43%	5.87%	-4.86%	0.011%
CC1(C)CCCC2(C)C1C(OC(=O)/C=C/C=C/C=O)C=C1COC(=O)C12O (centres undefined)	-4.21%	-4.97%	-1.71%	-23.4%	-13.2%
Cc1cc(F)ccc1NS(=O)(=O)c1cc2c(cc1C)n(C)c(=O)n2C	10.4%	0%	6.24%	-2.25%	1.77%
O=C(NC1CC(=O)N(Cc2cccc(F)c2)C1)c1ccccc1-n1cccn1 (centres undefined)	-0.189%	-4%	-0.389%	-0.817%	4.72%
C=C1CCC[C@]2(C)CC/C(=C(/CO)C(=O)OC)C[C@@H]12	-0.489%	-4.72%	6.22%	-18.4%	-10.1%
Cc1cc2c(cc3n2CC(C(=O)NC2CCCCCC2)(c2ccccc2)N(Cc2ccccc2)C3=O)o1 (centres undefined)	-2.37%	-0.769%	0.556%	-5.99%	-7.98%
CC(C)CCNC(=O)c1cc2n(n1)CC(C)(C(=O)NCc1ccccc1)N(C)C2=O (centres undefined)	1.15%	2.42%	-3.41%	-2.02%	0.187%
CC(=O)O[C@@H](CO[C@@H]1O[C@H](CO)[C@H](O)[C@H](O)[C@H]1O)[C@]1(C)C=C2CC[C@@H]3C(C)(C)[C@@H](O)CC[C@@]3(C)[C@@H]2CC1	-1.16%	-8.97%	3.55%	-20.8%	-8.08%
CCCn1c(=O)c2ccc(C(=O)NC(C)CC)cc2n2c(=O)n(CC(=O)Nc3cccc(Cl)c3)nc12 (centres undefined)	-1.45%	1.86%	0.537%	-2.22%	-1.16%
Oc1ccc(Nc2nc(-c3ccc(Cl)cc3)cs2)cc1	-3.3%	9.41%	9.98%	-3.63%	3.53%
CC(C)N(C[C@H]1O[C@@H](n2cnc3c(N)ncnc32)[C@H](O)[C@@H]1O)C1CC(CCc2nc3ccc(C(C)(C)C)cc3[nH]2)C1 (some centres undefined)	-46.9%	-0.317% and -0.553%	-80.1%	-95.3% and -94.8%	-91.4% and -90.6%
Cc1cc(C)n(CCC(=O)N2CCC(Cc3nncn3-c3ccccc3)CC2)n1	0.418%	0.94%	3.05%	1.94%	-11.6%
O=C(NCc1cccc(F)c1)N1CCC(n2cnnc2C2CC2)C1 (centres undefined)	-1.51%	-4.9%	0.628%	-9.21%	-6.88%
CNc1cc(NS(=O)(=O)c2ccc(N)cc2)nc(NC)n1	-10.4%	9.39%	7.8%	-9.93%	-6.25%
CCOc1ccc(N(C(=O)c2ccncc2)S(=O)(=O)c2ccc3c(c2)n(C)c(=O)n3C)cc1	3.05%	4.63%	9.86%	-1.45%	3.13%
Cc1cc2c(cc3n2CC(C(=O)NC2CCCCC2)(c2ccccc2)N(Cc2ccccc2)C3=O)o1 (centres undefined)	-4.31%	-1.58%	-6.02%	-7.79%	-7.87%
O=[S+]([O-])(c1cccnc1)c1nnn2c1nc(NCc1ccncc1)c1ccccc12	-7.1%	-0.469%	0.123%	-1.59%	5.16%
Cc1ccc(Cl)cc1N1C(=O)c2cc3occc3n2CC1(C)C(=O)NC1CCCCC1 (centres undefined)	-11%	0%	-24.5%	-15.3%	-10.5%
CCC(Cc1ccccc1)NC(=O)Cn1c(=O)oc2cc(S(=O)(=O)NCc3ccccc3)ccc21 (centres undefined)	13.6%	1.44%	12.5%	0.973%	9.55%

SMILES	activity change, negative = inhibition [1]	activity change, negative = inhibition [2]	activity change, negative = inhibition [3]	activity change, negative = inhibition [4]	activity change, negative = inhibition [5]
CCc1ccc(-c2cc3n(n2)CC(C)(C(=O)NC2CCCCC2)N(CCN(CC)CC)C3=O)cc1 (centres undefined)	4.59%	1.46%	3.98%	4.93%	-0.365%
Cc1ccc(C(=O)NCCCCCC(=O)Nc2ccccc2N)cc1	-16.2%	–	-5.32%	-7.51%	23.3%
CCCn1c(=O)c2cc(F)ccc2n2c(SCc3cccc(C)c3)nnc12	-16%	2.82%	5.93%	-15.1%	1.73%
CCN1C(=O)c2cc(C(=O)N3CCN(c4cc(Cl)ccc4C)CC3)nn2CC1(C)C(=O)NC1CCCC1 (centres undefined)	6.43%	4.5%	5.83%	1.72%	6.18%
Cc1ccc(OCc2nc(C3CCCCN3C(=O)c3ccncc3)no2)cc1 (centres undefined)	-4.88%	-8.21%	-2.71%	-16.7%	6.87%
Cc1nc2sc(C(=O)NCc3ccncc3)c(N)c2c(C)c1Cl	-19.6%	4.38%	-13.9%	-16.6%	-8.4%
N#Cc1ccc2[nH]c(O)c(-c3ccc(CN4CCOCC4)cn3)c2c1	-6.1% and -8.99%	-5.05% and 2.95%	-3.66% and 9.13%	-16.4% and -6.73%	-5.36% and 6.7%
CC(C)c1ccc(S(=O)(=O)NCCn2c(CCc3ccccc3)nc3ccccc32)cc1	-5.67%	0%	-0.553%	-3.68%	2.67%
O=C(CC1C(=O)Nc2ccccc21)OC[C@H]1O[C@@H](OCCc2ccc(O)cc2)[C@H](O)[C@@H](O)[C@@H]1O (some centres undefined)	-3.13%	1.02%	10.2%	-11.6%	-5.32%
CC(=O)NCc1nnc2n1C(C(=O)Nc1cccc(Cl)c1)CC2 (centres undefined)	-1.19%	3.06%	1.27%	-0.233%	2.23%
CC1CCC(NC(=O)c2cc3n(n2)CC(C)(C(=O)NC2CCCCC2)N(C)C3=O)CC1 (centres undefined)	8.87%	4.06%	7.78%	10.1%	3%
CC(C)CNC(=O)c1ccc2c(=O)n(C(C)C)c3nn(CC(=O)NCc4ccccc4)c(=O)n3c2c1	1.01%	0.82%	3.72%	-5.72%	-2.06%
CC(C)[S+](=O)([O-])N1CCC2(CC1)CC(c1cccc(C(F)(F)F)c1)=NO2	-1.58%	-0.309%	2.28%	0.882%	-5.24%
C(=C\c1ccccc1)/CN1CCN(c2nccc(-c3cccnc3)n2)CC1	-5.01%	-2.63%	-15.8%	-2.18%	-28%
Cc1ccc(CNC(=O)CCc2nnc3ccc(NCCCN4CCCC4=O)nn23)cc1	1.91%	2.67%	12.8%	7.25%	9.26%
Nc1c(S(=O)(=O)O)cc(Nc2ccc(Nc3nc(Cl)nc(Nc4ccc(S(=O)(=O)O)cc4)n3)c(S(=O)(=O)O)c2)c2c1C(=O)c1ccccc1C2=O	-95.9%	-91.7%	-37.6%	-53%	-44.8%
COc1cccc(CNC(=O)CCc2nnc3n(CCCOC(C)C)c(=O)c4ccccc4n23)c1	-8.64%	-2.83%	-6.76%	-7.05%	-8.25%
CC1(C)CC[C@]2(C(=O)O)CC[C@]3(C)C(=CCC4[C@@]5(C)CC[C@H](O[C@@H]6O[C@H](C(=O)O)[C@@H](O)[C@H](O[C@@H]7O[C@H](CO)[C@H](O)[C@H](O)[C@H]7O)[C@H]6O[C@@H]6O[C@H](CO)[C@@H](O)[C@H](O)[C@H]6O)C(C)(C)C5CC[C@]43C)[C@@H]2C1 (some centres undefined)	-4.96%	-7.93%	1.49%	-19.4%	-12.5%
